The whole screen tested about 310,000 compounds, of which about 14,000 (4.5%) showed an effect of 50% or more. The effect is printed as a negative number. The list shows a part of the results.
Each compound was assayed against human ether-à-go-go-related gene (hERG) potassium channel (human, UniProt Q12809) (assay: primary screen, population patch clamp on CHO cells stably expressing hERG).
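Note: peak tail current of the secondary pulse compared with the same well before compound.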

human ether-à-go-go-related gene (hERG) potassium channel, sequence (Q12809 whole entry, looked up): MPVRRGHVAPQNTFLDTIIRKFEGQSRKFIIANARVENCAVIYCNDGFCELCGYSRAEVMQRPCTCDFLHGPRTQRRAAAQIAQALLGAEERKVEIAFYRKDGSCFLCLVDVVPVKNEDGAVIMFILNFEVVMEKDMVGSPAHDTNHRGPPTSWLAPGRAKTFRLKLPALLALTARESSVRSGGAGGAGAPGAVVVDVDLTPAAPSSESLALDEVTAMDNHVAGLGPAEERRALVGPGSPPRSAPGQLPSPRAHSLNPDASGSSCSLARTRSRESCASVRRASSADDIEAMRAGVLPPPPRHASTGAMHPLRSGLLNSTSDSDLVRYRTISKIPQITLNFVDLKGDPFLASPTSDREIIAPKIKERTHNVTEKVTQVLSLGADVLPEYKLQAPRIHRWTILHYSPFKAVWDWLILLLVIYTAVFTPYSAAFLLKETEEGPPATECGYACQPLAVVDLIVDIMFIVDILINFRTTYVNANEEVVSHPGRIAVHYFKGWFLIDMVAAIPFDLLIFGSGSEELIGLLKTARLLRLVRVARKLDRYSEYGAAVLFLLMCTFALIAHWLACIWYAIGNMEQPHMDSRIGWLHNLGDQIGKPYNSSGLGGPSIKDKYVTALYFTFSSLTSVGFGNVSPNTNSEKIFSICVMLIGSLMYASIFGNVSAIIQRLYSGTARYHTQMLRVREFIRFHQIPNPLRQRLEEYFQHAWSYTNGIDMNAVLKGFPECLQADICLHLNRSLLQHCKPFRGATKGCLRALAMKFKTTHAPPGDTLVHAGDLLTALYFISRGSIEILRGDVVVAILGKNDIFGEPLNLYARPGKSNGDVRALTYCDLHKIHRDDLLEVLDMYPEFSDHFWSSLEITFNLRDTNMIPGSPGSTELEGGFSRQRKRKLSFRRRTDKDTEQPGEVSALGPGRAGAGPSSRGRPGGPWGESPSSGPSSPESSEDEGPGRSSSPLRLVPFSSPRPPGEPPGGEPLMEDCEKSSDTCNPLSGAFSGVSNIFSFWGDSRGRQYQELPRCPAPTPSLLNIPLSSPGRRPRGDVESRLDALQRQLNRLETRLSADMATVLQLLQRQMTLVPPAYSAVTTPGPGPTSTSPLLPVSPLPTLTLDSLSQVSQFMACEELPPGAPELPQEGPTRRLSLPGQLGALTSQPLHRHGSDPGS

Row | SMILES | hERG current change (%, negative = inhibition) at 10uM [%]
1 | CC(=O)C(/C=N/c1ncc(C(F)(F)F)cc1Cl)=C(\C)O | 10.5
2 | CC1CCN(S(=O)(=O)c2ccc(C(=O)Nc3ccccn3)cc2)CC1 | 5.08
3 | COC(=O)Nc1ccc(S(=O)(=O)NC2CCCCC2)cc1 | 14.6
4 | CCN(CC)S(=O)(=O)c1cccc(NC(=O)c2ccc(C#N)cc2)c1 | -35
5 | O=C(COC(=O)C1CCN(c2ccc(C(F)(F)F)cn2)CC1)Nc1ccc(Cl)cc1 | -18
6 | CC(C(=O)O)n1cnc2sc3c(c2c1=O)CCCC3 (stereo not shown) | 15.6
7 | COc1ccc(CCNC(=O)c2ccc3c(c2)OCCO3)cc1 | 7.77
8 | CCc1ccc(N=C2NC(=O)/C(=C/c3cc(Br)c(OCC(=O)O)c(OC)c3)S2)cc1 | 1.05
9 | O=C(COC(=O)CNC(=O)c1ccco1)NCc1ccc(F)cc1 | 11.7
10 | CN1CCC(=O)N([C@H](CO)Cc2ccccc2)CC1 | 12
11 | Clc1ccc(-c2csc(N/N=C/c3ccco3)n2)cc1 | 10.8
12 | Nc1nonc1NC(=O)CSc1ncccc1C(=O)O | 16.2
13 | Cc1ccc(Cl)cc1NC1=NC(=S)N(C(C)C)C12CCCCC2 | 6.79
14 | COC(=O)c1ccc(CNC(=O)CN(CCC(C)C)S(=O)(=O)c2ccc3c(c2)OCCO3)cc1 | -7.95
15 | Cc1ccc(NC(=O)CSc2nc3ccccc3c3nc(CCn4cncc4C)nn23)c(C)c1 | 2.77
16 | NC(=O)c1ccc(NCC2COc3ccccc3O2)c([N+](=O)[O-])c1 (stereo not shown) | -1.78
17 | COc1cc2c(C(=O)NCCCN3CCN(c4cccc(Cl)c4)CC3)cn(C)c(=O)c2cc1OC | -46
18 | CCN1CCN(CCNC(=O)c2cn(Cc3ccccc3F)nn2)CC1 | 10.1
19 | CCCc1ccc(OCc2ccc(C(=O)OC)o2)c(OC)c1 | -17.8
20 | CCOc1ccc(Cc2n[nH]c(=S)n2Cc2ccccc2)cc1 | -10.3
21 | COc1cc(OC)c(-n2cc(-c3ccc(OC)c(OC)c3)[nH]c2=S)cc1Cl | 12.8
22 | CC1(C)N([O-])c2cc([N+](=O)[O-])ccc2[N+]1=O.NO | 17.9

Row | SMILES | hERG current change (%, negative = inhibition) at 10uM [%]
23 | Cc1ccccc1NC(=O)COc1ccc2c(c1)OC(C)(C)CC2=O | 22.6
24 | CCOc1ccccc1CNC(=O)c1cc2oc3ccccc3c2n1CC | -0.486
25 | CCN(CC)c1ccc(N=Cc2c(O)[nH]c(=O)[nH]c2=O)cc1 | -1.25
26 | CCCCNC(=O)Cn1nc(Cc2ccncc2)c2ccccc2c1=O | 14.5
27 | O=C(Nc1ccccn1)C1(c2cccs2)CCOCC1 | 8.48
28 | Cn1cc(C(=O)N/N=C/c2cc(Br)cs2)c2ccccc21 | 20.9
29 | Cc1onc(-c2ccccc2Cl)c1C(=O)N1CCN(c2cccc(Cl)c2)CC1 | 13.6
30 | Cc1ccc(-n2ccnc(SCC(=O)NCCc3ccccc3)c2=O)cc1F | -6.44
31 | CN(C)S(=O)(=O)c1ccc(Cl)c(C(=O)OCC(=O)NC(=O)c2cccn2C)c1 | -6.09
32 | Cc1ccc(-c2ccc(SCC(=O)Nc3nonc3C)nn2)cc1 | 4.05
33 | O=C(NCc1cn(-c2ccccc2)nc1-c1ccccc1)c1cc([N+](=O)[O-])cc([N+](=O)[O-])c1 | 11.1
34 | CCC(C)NC(=O)Cn1cnc([N+](=O)[O-])c1 (stereo not shown) | 11.8
35 | COc1cc2cc(C)c3nnc(SCC(=O)Nc4cc(C)on4)n3c2cc1OC | 18.4
36 | COc1ccc(-n2c(-c3ccc(Br)cc3)n[nH]c2=S)cc1 | 13.3
37 | COc1cc(OC)c(OC)cc1/C=N/n1c(COc2ccccc2)n[nH]c1=S | 17
38 | COc1ccc(C(=O)OC(C)CN2CCOCC2)cc1OC.Cl (stereo not shown) | 3.54
39 | CCOC(=O)Nc1c(C(=O)OC)[nH]c2cccc(OC)c12 | 15.6
40 | COc1ccc(CN(C(=O)c2snc(C(N)=O)c2N)C(C(=O)NC2CCCC2)c2ccco2)cc1 (stereo not shown) | -24.3
41 | Cc1n(N)c2ccccc2[n+]1CC(=O)c1ccccc1.[Br-] | 13.8
42 | COc1ccc(/C=C(/NC(=O)c2ccco2)C(=O)NCCc2ccccc2)cc1 | -52.6
43 | CC(=O)Nc1nnc(SCc2cc(=O)c(OC(=O)c3ccccc3)co2)s1 | 9.97
44 | COc1ccc(CCNC(=O)c2ccc(Cl)c(S(=O)(=O)N(C)c3ccccc3)c2)cc1 | 3.8

Row | SMILES | hERG current change (%, negative = inhibition) at 10uM [%]
45 | CCCCNC(=O)Nc1ccc(C(O)(C(=O)OC)C(F)(F)F)cc1 (stereo not shown) | -9.4
46 | c1ccc(Nc2nc(NCCN3CCOCC3)nc(Nc3ccccc3)n2)cc1 | -15.2
47 | Cc1cccc(NC(=O)CCCCCN2C(=O)c3ccccc3C2=O)n1 | -7.28
48 | COc1ccccc1/C=N/NC(=O)CN(C1=NS(=O)(=O)c2ccccc21)c1ccccc1 | 6.77
49 | O=C(COC(=O)CNS(=O)(=O)c1ccccc1)NC12CC3CC(CC(C3)C1)C2 | -18
50 | Cc1nsc(Nc2ccccc2)c1C#N | 9.13
51 | O=C(O)C[C@@H](O)C(=O)O | 14.7
52 | CC1CCCCN1CCCNc1c(C=O)c(=O)[nH]c2ccccc12 (stereo not shown) | -3.96
53 | COc1ccc2c(c1)O/C(=C\c1ccco1)C2=O | -8.05
54 | CC(=O)CSc1nc2ccc(Nc3nc(N4CCOCC4)nc(N4CCOCC4)n3)cc2s1 | -7.76
55 | COc1ccc(C(C)=O)cc1CSc1nnc(C)s1 | 11
56 | CCOc1ccc2[nH]c(=O)c(CN(CCc3ccccc3)C(=O)N3CCOCC3)cc2c1 | -14.2
57 | COc1ccc(-c2noc3c2-c2nc(-c4ccccc4Cl)sc2CC3)cc1 | 15.4
58 | O=C1C2CC=C(Cl)CC2C(=O)N1CCc1c[nH]c2ccccc12 (stereo not shown) | -4.29
59 | C/C(=N\Nc1ncc(Cl)cc1Cl)c1cccs1 | -17.7
60 | CCOC(=O)c1nn(-c2ccccc2)c(=O)cc1SC(C)CC (stereo not shown) | 7.77
61 | O=C(Cn1ccc2ccccc2c1=O)NCC(=O)Nc1ccc(F)cc1F | 11.8
62 | CCOC(=O)N1CCN(c2c(N3CCN(c4ccc(OC)cc4)CC3)c(=O)c2=O)CC1 | -46.6
63 | CCOC(=O)c1c(C)[nH]c(C)c1S(=O)(=O)NCCc1ccc(SC)cc1 | -7.24
64 | O=C(Nc1ccc(Cl)c(Cl)c1)NC1CCS(=O)(=O)C1 (stereo not shown) | -8.07
65 | O=C1CC(N2CCC(c3nc4ccccc4[nH]3)CC2)C(=O)N1c1cccc(F)c1 (stereo not shown) | -17.9
66 | COc1ccc2c(c1OC)C(=O)OC2Nc1nc(-c2cccc([N+](=O)[O-])c2)cs1 (stereo not shown) | 20.7

Row | SMILES | hERG current change (%, negative = inhibition) at 10uM [%]
67 | CCOc1cccc(Oc2ncccc2C(=O)/C(C#N)=C/N(C)C)c1 | 19.8
68 | COc1ccc(C(=O)Nc2ccc3nc4n(c(=O)c3c2)CCCC4)cc1[N+](=O)[O-] | 15.9
69 | CCn1c(SCC(=O)Nc2ccc(C)cc2)nc2sc3c(c2c1=O)CCN(C)C3 | 3.79
70 | NC(=O)CC(NC(=O)c1cccc(Br)c1)c1ccc(NC2CCCCCCCCCCC2)c([N+](=O)[O-])c1 (stereo not shown) | 5.21
71 | CC(C)OCCCNC(=O)c1ccc(CS(=O)(=O)Cc2ccccc2F)o1 | 8.07
72 | CCSc1nc(=S)cc(C)[nH]1 | 17.9
73 | Cc1ccc(C(O)(c2ccccc2)c2ccccc2C(C)N(C)C)c(C)c1 (stereo not shown) | 1.55
74 | CCOC(=O)c1sc2ncn(C(CC)C(=O)OCC)c(=O)c2c1C (stereo not shown) | 1.12
75 | Cl.O=C(CCN1C(=O)c2ccccc2S1(=O)=O)N1CCN(c2ccccc2)CC1 | 2.96
76 | O=C(CCCc1nc2ccccc2s1)N1CCN(c2ccccc2F)CC1 | -31.3
77 | CCOc1ccccc1NC(=O)C1C2C=CC(O2)C1C(=O)O (stereo not shown) | 8.34
78 | O=C1CC(c2ccc3ccccc3c2)NN1 (stereo not shown) | -0.17
79 | Cn1c2ccccc2c2ncn(CCC3=CCCCC3)c(=O)c21 | -16
80 | O=C(NCc1ccc(Cl)s1)C1CCC(=O)N(CCc2cccc(F)c2)C1 (stereo not shown) | -60.2
81 | CCOC(=O)c1ccc(NC(=O)CC2C(=O)N(c3ccccc3)C(=O)N2CCCOC)cc1 (stereo not shown) | -4.49
82 | Cc1ccc(C(=O)CCS(=O)(=O)c2ccc(Br)cc2)cc1 | 27.6
83 | CCn1c(SCC(=O)N2CCCCC2)nc2c1c(=O)n(C)c(=O)n2C | 14.3
84 | Cc1cccc(N2CCN(C(=O)Cn3cnc4c3c(=O)n(C)c(=O)n4C)CC2)c1C | -26
85 | NC(=O)[C@@H]1CCCCNc2c(F)cc([N+](=O)[O-])cc2C(=O)N[C@@H](CC(=O)O)C(=O)NCC(=O)N1 | 4.96
86 | Cc1cc(=O)n(CC(=O)NCCN2CCOCC2)c2c1c(C)nn2-c1ccccc1 | 11.9
87 | Cc1cc(=O)oc2c(CN3CC(C)OC(C)C3)c(O)c(Cl)cc12 (stereo not shown) | 14.5
88 | CCCOc1cccc(C2C(C(=O)c3ccco3)=C(O)C(=O)N2CCCn2ccnc2)c1 (stereo not shown) | 16.8
